# Results from PubChem BioAssay (NCI).
# Several values for one entry are separate records, joined by “and”; a condition that tells them apart may be missing. Equal entries are not always repeated.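 In this assay, cells in 96-well plates receive the compound at five concentrations for 48 hours. Endpoints are linearly interpolated between the surrounding concentrations. Here, GI50 denotes the concentration required for 50% inhibition of growth. TGI: total growth inhibition.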 Numbered stars: 1 amine (or outer) side, 2 acyl side, 3 side chain; on linkers, the order of the positions; unused ones are H or OH. Square brackets hold non-standard residues; d marks the D form. Peptide text beside a SMILES is read from it. * marks the point of attachment. X28 = C=CCC(O[*:1])C(=O)[*:2]; NMeV = CN[CH](C(=O)O)C(C)C; NMeA = CN[CH](C)C(=O)O; Boc = CC(C)(C)OC(=O)*; OBn = c1ccc(CO*)cc1; βAla = NCCC(=O)O
# System: NCI-H322M lung
# Assay: inhibition of tumour cell growth, NCI panel, 48 h
SMILES,TGI,GI50 [µM]
CC(C)(C)[Si](C)(C)OCCOCn1cc(F)c(=O)[nH]c1=O,> 100 µM,
CC(C)c1ccc(Nc2nccc(-c3cnn4ncccc34)n2)cc1,> 22.3 µM,0.952
COC(=O)c1cc(-c2cccn2C)c2c(c1C(=O)OC)c1ccccc1n2C,> 100 µM,
COC(=O)C1=C(CCCCO[Si](C)(C)C(C)(C)C)NC(=O)N2[C@@H](CCOCc3ccccc3)CC[C@H]12,> 100 µM,
COc1cc(C(=O)/C=C/c2cccnc2Nc2ccccc2)cc(OC)c1OC,3.39 µM,1.9
Nc1nc(N)c(N=O)c(OCC2CCCCC2)n1,> 87.9 µM and 78 µM,20.1
O=C1NC2C=CN(Cc3ccccc3)C=C2C(=O)N2CCCC12 (stereo unspecified),> 100 µM,
O=c1[nH]c(-c2ccccc2)nc2c1sc1nc3ccccc3n12,> 100 µM,
C=CC1C(OC2OC(CO)C(O)C(O)C2O)OC=C(C(=O)OC)C1CC=O (stereo unspecified),> 100 µM,
C[C@]12CCc3sc(Nc4ccc(O)cc4)nc3C1=CC[C@@H]1[C@@H]2CC[C@]2(C)C(=O)CC[C@@H]12,> 100 µM,6.4
CCN(CC)C(=S)N=Nc1c(O)[nH]c2ccccc12,11.6 µM,
CC(C)CCc1n[nH]c(=O)n1/N=C\c1ccccc1,> 100 µM,
CC(C)N1C(NNC(=O)c2cnccn2)=NS(=O)(=O)c2ccccc21,> 100 µM,> 100
COc1cc(/C=C2\C(=O)N(Cc3ccccc3)C(c3ccccc3)S2(=O)=O)cc(OC)c1OC (stereo unspecified),> 100 µM,
C=C1CCC2C3(C)COC(c4ccccc4Br)OC3CCC2(C)C1C/C=C1/C(=O)OCC1OC(C)=O (stereo unspecified),16.5 µM,3.79
O=c1oc(-c2ccccc2)c(-c2ccccc2)n1-c1ccc(Br)cc1,> 100 µM,
N=C(N)c1ccc(COc2ccccc2OCc2ccc(C(=N)N)cc2)cc1,> 100 µM,48.1
CN(C)CCn1c(=O)c2ccc3c4c(nn3CCN(C)C)c3cc(O)ccc3n(c1=O)c24,0.15 µM,
C=C=C(Sc1ccccc1)C(C)(C)OC(C)=O,61.3 µM,
O=C1CCC2(c3ccccc3)Nc3ncccc3N12 (stereo unspecified),> 100 µM,
O=C1C(=Nc2ccccc2)Oc2cc(O)ccc21,> 100 µM,
O=C(CCc1cc(-c2ccccc2)nc(=S)[nH]1)Nc1ccccc1[N+](=O)[O-],> 100 µM,
CN(C)CC1CCCCCC(CN(C)C)C1=O (stereo unspecified),> 90.8 µM,33.2
CC(C)C/C=C/C1=NN(c2cccc(S(=O)(=O)O)c2)C2(C1)SCC(=O)N2c1nc2ccccc2s1 (stereo unspecified),> 100 µM,
O=S(=O)(O)c1ccc2c(N=Nc3ccc(F)cc3)c(O)c(S(=O)(=O)O)cc2c1,> 100 µM,

SMILES,TGI,GI50 [µM]
CCCCCC[C@H]1C(=O)O[C@H](C)[C@H](NC(=O)c2cccc(NC=O)c2OC)C(=O)O[C@@H](C)[C@@H]1OC(=O)CC(C)C (tested in a mixture with another compound),> 100 µM,
CCC(=O)N(O)C(C)(C)C,> 100 µM,
c1ccc(P(CCP(CCP(c2ccccc2)c2ccccc2)c2ccccc2)CCP(c2ccccc2)c2ccccc2)cc1 (stereo unspecified),> 10 µM,
O=C(c1cccnc1)c1cc(-c2ccccn2)c(=O)n2ccccc12,> 100 µM,> 100
FC(F)(F)c1ccc(-c2cnc(Cl)nc2NCc2cc(C(F)(F)F)cc(C(F)(F)F)c2)cc1,> 100 µM,3.52
COc1cccc2nc3cc(C)c(C)cc3nc12,> 100 µM,
CCCCCCCOc1c(OC)cc(C2CC(=O)Nc3c2c(C)nn3-c2nc3ccccc3[nH]2)cc1OC (stereo unspecified),> 100 µM,3.64
O=C(CN1CCN(c2ccccc2)CC1)N1CCN(c2nnc(-c3ccc(Cl)cc3)c(-c3ccc(Cl)cc3)n2)CC1,> 100 µM,> 100
Oc1ccc(/C=C/c2ccc3cccc(O)c3n2)cc1O,40 µM,
C/C(=N\NC(=S)Nc1ccc(C)cc1)c1nc2ncccc2[nH]1,30 µM,
C=CCC1OC(=O)CCNC(=O)C(C)N(C)C(=O)C(C(C)C)N(C)C(=O)C(C(C)CC)NC(=O)C2CCCN2C1=O (stereo unspecified) (cyclo([X28]PI[NMeV][NMeA][βAla]); configuration not given here),> 100 µM,
Cn1c(=O)c2c(ncn2CCCCOc2ccc3c(c2)[n+]([O-])nc(N)[n+]3[O-])n(C)c1=O,> 100 µM,
Nc1ccc(-c2ccc(N)cc2I)c(I)c1,47.4 µM,17.7
CC(=O)N1N(c2ccc([N+](=O)[O-])cc2)C(=O)C1(C)C,94.9 µM,
CSC1(SC2=NCCN2)SC2(NCCN2)S1,39.3 µM,
CCCC(Sc1ccccc1)P(=O)(c1ccccc1)c1ccccc1 (stereo unspecified),> 100 µM,
Clc1nc(NCCc2ccccc2)c2ncn(-c3ccccc3)c2n1,> 100 µM,
O=C(CCCSc1nc(-c2ccccc2)cc(-c2ccc(Cl)cc2)n1)NO,11.9 µM,1.26
CC(C)CC(NC(=O)C(CCI)Cc1ccccc1)C(=O)Nc1ccccc1 (stereo unspecified),> 100 µM,
C=C1C(=O)O[C@H]2[C@H]3O[C@@H](C[C@@H]12)[C@@]1(C)CC[C@H](O1)C(C)=CCC[C@H]3C,17.5 µM,
CCOc1ccc(NCC2CC/C(=C\c3ccc(O)cc3)C2=O)cc1 (stereo unspecified),> 100 µM,
CCCCN(CCCC)c1ccc(C(=NC(C)CCCN(CC)CC)c2ccc(N(C)C)cc2)cc1 (stereo unspecified),2.67 µM,1.05
CCOC(=O)Nc1nn(C)c(=NCc2ccccc2)s1,> 100 µM,
O=C(CN(/C=C/C(=O)C(F)(F)F)c1ccccc1)c1ccc(Cl)c(Cl)c1,26.8 µM,12.9
NNCCc1n[nH]c(=O)n1N,> 100 µM,

SMILES,TGI,GI50 [µM]
COC(C)(C)CCc1[nH]c2ccccc2c1CC(=O)NCCc1cncn1C,> 100 µM,
CCNCCNc1cc(C2CCCCC2)c(C#N)c2nc3ccccc3n12,7.06 µM,2.45
CCOP(=O)(OCC)C1=C(c2ccccc2)OC(N)=C(C#N)C1c1ccc(Cl)cc1 (stereo unspecified),> 100 µM,
O=C(OCCBr)c1ccc(Cl)c([N+](=O)[O-])c1,6.96 µM,2.86
Cn1ccnc1C(=O)/C=C/c1ccc(CC(=O)Nc2ccc(C(F)(F)F)cc2)cc1,6.77 µM,2.54
Cc1cc2nc(-c3c(F)cccc3F)n(Cc3c(F)cccc3F)c2cc1C,37.6 µM,
COc1cc2c(cc1OC)C(C)N(C)c1c-2c(OC(C)=O)cc2cc(OC)c(OC)cc12 (stereo unspecified),> 93 µM,
COC(=O)[C@@]12C(=O)C(C)C(=O)[C@]1(C)C(C)=C[C@H]1[C@]3(C=O)CC[C@H](OC(C)=O)C(C)(C)[C@H]3CC[C@@]12C (stereo partly specified),> 100 µM,
CC(=O)O[C@H]1CC[C@@]2(C)[C@@H](CC[C@@H]3[C@@H]2CC[C@]2(C)C=C(C=O)C[C@@H]32)C1,30.2 µM,15
C/C(=N\NC(=S)NC(C)(C)C)c1ccccn1,> 100 µM,
COC1=CC(=O)c2c(O)c3c(c(O)c2C1=O)C=C(C)OC3O (stereo unspecified),2.74 µM,
COc1ccc(-c2c3c(nc4nc(SC)nc(SC)c24)CCCC3)cc1OC,> 100 µM,
O=C(O)CC1OCC=C2CN3CCC45C6=CC(=O)C(=O)C([N+](=O)[O-])=C6NC4C1C2CC35 (stereo unspecified),> 100 µM,
N#Cc1[nH]c(=O)n(-c2cccc3ccccc23)c1N,> 10 µM,
CC#CC1C(OC(=O)c2ccccc2)CCCC1(CI)N=[N+]=[N-] (stereo unspecified),> 100 µM,
CCN1C(=O)N(CC)C2C1NN=c1s/c(=C\c3cc4ccccc4[nH]3)c(=O)n12 (stereo unspecified),> 68.2 µM,0.0576
Nc1nc(N)c2[nH]cnc2n1 (tested in a mixture with another compound),> 100 µM,
CC(C)(C)OC(=O)N/N=C(/N)Cc1ccccc1,> 100 µM,
CCOC(=O)c1nc(-c2ccccc2)oc1OCC,> 100 µM,
CC(C)/C(Cl)=N\OC(=O)Nc1ccc(F)cc1F,19.1 µM,
Nc1cc(N)c2nc(-c3ccccc3)c(NCc3ccc(F)cc3)nc2c1,11.6 µM,3.46
COc1ccc2c(c1)C(C)Cc1c(Cl)nc(C)nc1N2C (stereo unspecified),35.6 µM,5.86
COc1ccc(-c2cc(=O)c3cc4c(cc3[nH]2)OCO4)cc1,> 100 µM,
CCC(/C=C/c1ccccc1)=N\Nc1ccc(Cl)c(Cl)c1,> 100 µM,
Cn1cnc(N2CCCC2)c(C#N)c1=O,> 100 µM,

SMILES,TGI,GI50 [µM]
Nc1n[nH]c2ccc([C@@H]3Nc4ccc5[nH]ncc5c4[C@H]4C5C=CC(C5)[C@@H]34)cc12 (stereo partly specified),> 65.3 µM,0.783
O=C1c2ccccc2CC1C1(O)C(=O)Nc2ccccc21 (stereo unspecified),> 100 µM,
O=c1oc2c(ccc3ccccc32)cc1C1=CSC2=NCCN12,> 100 µM,
COc1ccc(C(=O)/C=C/c2cccnc2)cc1OC,27.3 µM,
CC(NC(=O)C(Cc1ccccc1)NC(=O)C(Cc1ccccc1)NC(=O)OC(C)(C)C)C(=O)OCc1ccccc1 (stereo not drawn) (Boc-Phe-Phe-Ala-OBn; configuration not given here),> 100 µM,
CC(C)(CO)NC(=O)Nc1c(C(F)(F)F)cc(-c2ccccc2)[nH]c1=O,> 100 µM,
CCCCNC(=O)NS(=O)(=O)c1ccc(N2N=C(c3cc(C)ccc3C)CC2c2cc(OC)c(OC)c(OC)c2)cc1 (stereo unspecified),13.9 µM,3.35
CC12CC(OC(=O)[C@]1(C)O)[C@@H]([C@]1(O)CC[C@H]3[C@@H]4C[C@H]5O[C@]56[C@@H](O)C=CC(=O)[C@]6(C)[C@H]4CC[C@@]31C)C2 (stereo partly specified),47.2 µM,
Cc1n[nH]c(=O)n1/N=C\CC/C=N\n1c(C)n[nH]c1=O,> 100 µM,
CC1OC1C(=O)C1(O)C(C)C(O)C23OC2(C(O)c2c(O)cccc2C3=O)C1O (stereo unspecified),0.4 µM,
O=C(Cc1ccccc1)NCCCN(CCCCN(CCCNC(=O)Cc1ccccc1)C(=O)OCc1ccccc1)C(=O)OCc1ccccc1,> 100 µM,
C/C=C/[C@@H]1OC(=O)C2=C[C@@H](O)[C@@H](/C=C/C)O[C@H]21,31.9 µM,14.7
O=C1CCCCC/C1=C\c1ccc(Cl)cc1,> 100 µM,
Cn1cc(-c2ccc(-c3cn(C)c4ccc(Cl)cc34)s2)c2cc(Cl)ccc21,> 100 µM,> 100
CCCc1cc(=O)n2c(C(=O)Nc3ccccc3OC)c(C(=O)Nc3ccc(F)cc3)sc2n1,> 160 µM,45.1
NC(=O)NC(=O)c1cccc(NC(=O)CF)c1,> 100 µM,
c1ccc(C2OCCO2)c(OCCOc2cc(OCCOc3ccccc3C3OCCO3)c(OCCOc3ccccc3C3OCCO3)cc2OCCOc2ccccc2C2OCCO2)c1,> 100 µM,
CC(=O)N(CN1C(=O)CCC1C(=O)O)c1cccc(O)c1 (stereo unspecified),> 100 µM,
O=C1C(=C(I)I)c2ccccc2-c2ccccc21,24.8 µM,
CC1=N[C@](C)(C2CC3C=CC2C3=O)COC1=O (stereo partly specified),> 100 µM,
c1ccc(CSc2nnc3c4ccccc4c4ccccc4c3n2)cc1,> 100 µM,
CCOc1ccccc1/C=N\N=C(\N)N/N=C/c1ccccc1OCC,> 100 µM,4.63
